The record followed here is patent US20250236654A1, “C-TYPE NATRIURETIC PEPTIDE ENGRAFTED ANTIBODIES” (Bayer Aktiengesellschaft, priority 2018, published 2025).

The target in the test is T1, human NPRA (hNPRA) (Homo sapiens, UniProt P16066).
T1 construct: expressed in transfected cells
T1 sequence (P16066 33-1061): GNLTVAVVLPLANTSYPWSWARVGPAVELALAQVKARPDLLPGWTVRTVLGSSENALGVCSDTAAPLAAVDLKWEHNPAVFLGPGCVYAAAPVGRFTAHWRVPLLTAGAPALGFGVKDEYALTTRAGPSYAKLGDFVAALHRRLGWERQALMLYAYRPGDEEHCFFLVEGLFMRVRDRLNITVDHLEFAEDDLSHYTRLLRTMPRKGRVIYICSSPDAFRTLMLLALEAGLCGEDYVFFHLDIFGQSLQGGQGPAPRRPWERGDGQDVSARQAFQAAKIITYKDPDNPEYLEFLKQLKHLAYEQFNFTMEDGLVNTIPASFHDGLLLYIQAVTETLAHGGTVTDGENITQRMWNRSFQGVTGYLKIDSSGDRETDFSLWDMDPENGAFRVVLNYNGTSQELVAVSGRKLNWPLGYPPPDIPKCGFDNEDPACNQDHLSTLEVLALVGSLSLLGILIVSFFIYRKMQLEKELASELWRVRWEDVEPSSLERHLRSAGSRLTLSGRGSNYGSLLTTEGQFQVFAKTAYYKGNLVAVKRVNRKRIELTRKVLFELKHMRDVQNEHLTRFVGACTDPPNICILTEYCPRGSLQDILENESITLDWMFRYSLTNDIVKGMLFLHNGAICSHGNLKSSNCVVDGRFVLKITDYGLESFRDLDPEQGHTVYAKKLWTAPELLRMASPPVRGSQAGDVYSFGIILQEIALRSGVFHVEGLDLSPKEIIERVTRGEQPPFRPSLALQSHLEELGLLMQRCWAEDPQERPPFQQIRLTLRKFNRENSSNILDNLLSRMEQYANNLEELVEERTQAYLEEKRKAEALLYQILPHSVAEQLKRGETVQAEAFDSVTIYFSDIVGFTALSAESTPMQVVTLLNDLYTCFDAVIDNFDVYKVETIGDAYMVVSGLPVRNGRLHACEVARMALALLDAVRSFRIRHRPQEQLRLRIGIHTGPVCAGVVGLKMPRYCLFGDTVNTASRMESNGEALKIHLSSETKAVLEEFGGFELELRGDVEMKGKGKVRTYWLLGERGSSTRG
Kind of test: cGMP quantification assay (HTRF) on stable hNPRA-CHO k1 cells (rcs, ics, pcs samples). To be noted: for activity (qualit. activity, excerpt of Table 7): ANP engrafted antibody constructs, summarized qualitative assessment from average rel. log EC50 vs reference TPP-5661 on hNPRA cells; for activity rcs: raw compound samples (rcs) on stable hNPRA-CHO k1 cells, reference TPP-5661 (#117) gives 36%, n.a. = not active. The class given is cell-based. Here is the method: All activities shown in Tables 7 and 8 were measured on cells with heterologous over expression of human NPRA (hNPRA) by use of a cGMP quantification assay conducted according to manufacturer's instructions (cisbio; 62GM2PEH). In brief, the assay quantifies cGMP in buffered solution or cell-culture supernatants based on the competition between cGMP produced by the cell as result of the NPRA stimulation through the (natriuretic peptide) sample and d2 labelled cGMP for binding to a Cryptate labelled antibody. Sample cGMP and d2 labeled cGMP compete for binding to a limited number of sites on Cryptate labeled anti-cGMP antibodies, and consequently, HTRF® specific fluorescent signal (i.e. energy transfer) is inversely proportional to the concentration of cGMP in the sample.
Dose-response curve data were analyzed with GraphPad Prism (version 7.00 for Windows, GraphPad Software, La Jolla California USA) and EC50 were fitted according to Y=Bottom+(Top-Bottom)/(1+10∧((Log EC50-X)*HillSlope)) applying constraints for bottom, top and slope (shared value for all data sets of the respective experiment).
The raw compound sample activity on stable hNPRA-CHO k1 cells was first assessed by comparison to the negative control TPP-5657 and to a positive sample, in particular TPP-5661. Controls and res were tested in quadruplets in two concentrations with a relative dilution factor of 5 aiming for a fluorescent signal (s) in the dynamic range of the assay. […] Values listed in Table 7, columns “activity res” and “stdev activity res”, represent the average of the results for the two concentrations and the respective standard deviation. Res signals less than half of the signal of the reference compound TPP-5661 (36%) were assessed as not active (n.a.).
The activity of several raw compound samples on stable hNPRA-CHO k1 cells was reassessed by comparison to reference sample TPP-5661 in 2.5-fold dilution series (8 concentrations) starting with a 5-fold dilution. The “log EC50” fit value as activity measure of the res was set in relation to the corresponding value of the reference res TPP-5661 by calculating the delta “log EC50” _compound −“log EC50” _TPP-5661; resulting values are listed in Table 7, column “rel. activity res”. […] All samples were applied in quadruplets.
The activity of isolated compound samples on stable hNPRA-CHO k1 cells was assessed by EC50 determination and comparison to reference sample TPP-5661. Samples were tested in 2.5-fold dilution series from 80 nM to 0.13 nM. The log EC50 fit value as activity measure of the ics was set in relation to the corresponding value of the reference ics TPP-5661 (−8.8) by calculating the delta log EC50_compound−log EC50_TPP-5661; resulting values are listed in Table 7, column “rel. log EC50 ics”. All samples were applied in quadruplets.
The activity of purified compound samples on stable hNPRA-CHO k1 cells was assessed in multiple experiments by EC50 determination and comparison to reference sample TPP-5661. Samples were tested in dilution series at least in quadruplets. […] The log EC50 fit value as activity measure of the pcs was set in relation to the corresponding value of the reference TPP-5661 in the respective experiment (in average −9.2, standard deviation 0.5) by calculating the delta log EC50_compound−log EC50_TPP-5661.
(TR-FRET usually uses a lanthanide donor and a delayed reading to cut background.)

Setting [1] is: summarized qualitative assessment from average rel. log EC50 (hNPRA-CHO k1 and hNPRA-HEK293 data), n.e = not active, very low expression.

B1: TPP-13061: ANP engrafted antibody construct, CDRH2 (antibody, listed as Homo sapiens)
heavy: EVQLLESGGGLVQPGGSLRLSCAASGFTFSSYAMSWVRQAPGKGLEWVSAISVVVTSHQAPGEGGSGGSLRRSSCFGGRMDRIGAQSGLGCNSFRYGGSTPLKSLASTYYADSVKGRFTISRDNSKNTLYLQMNSLRAEDTAVYYCAKLTGAEYFQHWGQGTLVTVSS[letters of human IgG1 constant region left out]
light: QSVLTQPPSVSGAPGQRVTISCTGSSSNIGAGYDVHWYQQLPGTAPKLLIYGNSNRPSGVPDRFSGSKSGTSASLAITGLQAEDEADYYCQSYDSSLSGVVFGGGTKLTVLGQPKAAPSVTLFPPSSEELQANKATLVCLISDFYPGAVTVAWKADSSPVKAGVETTTPSKQSNNKYAASSYLSLTPEQWKSHRSYSCQVTHEGSTVEKTVAPTECS
modifications: NP engrafted HC
Regarding B1, the “activity (qualit. activity, excerpt of Table 7)” value is given as “++ (relative log EC50<0.7 were assessed as very active)”. In addition, the qualit. activity result under setting [1] is recorded as “++ (relative log EC50<0.7 were assessed as very active)”.

B2: TPP-10283: ANP engrafted antibody construct, CDRH2 (antibody, listed as Homo sapiens)
heavy: EVQLLESGGGLVQPGGSLRLSCAASGFTFSSYAMSWVRQAPGKGLEWVSAISGPNPNPNPNPNSPDGGSGGSLRRSSCFGGRMDRIGAQSGLGCNSFRYGSYNPNPNPNPNPGSTYYADSVKGRFTISRDNSKNTLYLQMNSLRAEDTAVYYCAKLTGAEYFQHWGQGTLVTVSS[letters of human IgG1 constant region left out]
light: QSVLTQPPSVSGAPGQRVTISCTGSSSNIGAGYDVHWYQQLPGTAPKLLIYGNSNRPSGVPDRFSGSKSGTSASLAITGLQAEDEADYYCQSYDSSLSGVVFGGGTKLTVLGQPKAAPSVTLFPPSSEELQANKATLVCLISDFYPGAVTVAWKADSSPVKAGVETTTPSKQSNNKYAASSYLSLTPEQWKSHRSYSCQVTHEGSTVEKTVAPTECS
modifications: NP engrafted HC
On to B2, for which the “activity (qualit. activity, excerpt of Table 7)” value is recorded as “+++ (highest activities were observed at relative log EC50 below −0.7)” and the activity rcs is 83%. Besides, under setting [1], the qualit. activity result was “+++ (highest activities were observed at relative log EC50 below −0.7)”.

B3: TPP-10765: ANP engrafted antibody construct, CDRH2 (antibody, listed as Homo sapiens)
heavy: EVQLLESGGGLVQPGGSLRLSCAASGFTFSSYAMSWVRQAPGKGLEWVSAISGPNPNKNPNPNPGSGGSLRRSSCFGGRMDRIGAQSGLGCNSFRYGSNPNENPNPNPGSTYYADSVKGRFTISRDNSKNTLYLQMNSLRAEDTAVYYCAKLTGAEYFQHWGQGTLVTVSS[letters of human IgG1 constant region left out]
light: QSVLTQPPSVSGAPGQRVTISCTGSSSNIGAGYDVHWYQQLPGTAPKLLIYGNSNRPSGVPDRFSGSKSGTSASLAITGLQAEDEADYYCQSYDSSLSGVVFGGGTKLTVLGQPKAAPSVTLFPPSSEELQANKATLVCLISDFYPGAVTVAWKADSSPVKAGVETTTPSKQSNNKYAASSYLSLTPEQWKSHRSYSCQVTHEGSTVEKTVAPTECS
modifications: NP engrafted HC
In the case of B3, the “activity (qualit. activity, excerpt of Table 7)” value is reported as “++ (relative log EC50<0.7 were assessed as very active)” and the activity rcs is reported as 72%. Further, the qualit. activity result under setting [1] was “++ (relative log EC50<0.7 were assessed as very active)”.

B4: TPP-10845: ANP engrafted antibody construct, CDRH2 (antibody, listed as Homo sapiens)
heavy: EVQLLESGGGLVQPGGSLRLSCAASGFTFSSYAMSWVRQAPGKGLEWVSAISGSTYISNVNHKPDGGSGGSLRRSSCFGGRMDRIGAQSGLGCNSFRYGSNTKVDKKVEGGSTYYADSVKGRFTISRDNSKNTLYLQMNSLRAEDTAVYYCAKLTGAEYFQHWGQGTLVTVSS[letters of human IgG1 constant region left out]
light: QSVLTQPPSVSGAPGQRVTISCTGSSSNIGAGYDVHWYQQLPGTAPKLLIYGNSNRPSGVPDRFSGSKSGTSASLAITGLQAEDEADYYCQSYDSSLSGVVFGGGTKLTVLGQPKAAPSVTLFPPSSEELQANKATLVCLISDFYPGAVTVAWKADSSPVKAGVETTTPSKQSNNKYAASSYLSLTPEQWKSHRSYSCQVTHEGSTVEKTVAPTECS
modifications: NP engrafted HC
B4: the “activity (qualit. activity, excerpt of Table 7)” value was “++ (relative log EC50<0.7 were assessed as very active)” and the activity rcs turned out to be 67%. The qualit. activity result under setting [1] is reported as “++ (relative log EC50<0.7 were assessed as very active)”.

B5: TPP-10282: ANP engrafted antibody construct, CDRH2 (antibody, listed as Homo sapiens)
heavy: EVQLLESGGGLVQPGGSLRLSCAASGFTFSSYAMSWVRQAPGKGLEWVSAISGSGSGSGSGSGSPDGGSGGSLRRSSCFGGRMDRIGAQSGLGCNSFRYGSYGSGSGSGSGSGSTYYADSVKGRFTISRDNSKNTLYLQMNSLRAEDTAVYYCAKLTGAEYFQHWGQGTLVTVSS[letters of human IgG1 constant region left out]
light: QSVLTQPPSVSGAPGQRVTISCTGSSSNIGAGYDVHWYQQLPGTAPKLLIYGNSNRPSGVPDRFSGSKSGTSASLAITGLQAEDEADYYCQSYDSSLSGVVFGGGTKLTVLGQPKAAPSVTLFPPSSEELQANKATLVCLISDFYPGAVTVAWKADSSPVKAGVETTTPSKQSNNKYAASSYLSLTPEQWKSHRSYSCQVTHEGSTVEKTVAPTECS
modifications: NP engrafted HC
Take B5: the “activity (qualit. activity, excerpt of Table 7)” value is listed as “++ (relative log EC50<0.7 were assessed as very active)” and the activity rcs stood at 30%. Also, the qualit. activity result under setting [1] is listed as “++ (relative log EC50<0.7 were assessed as very active)”.

B6: TPP-13230: ANP engrafted antibody construct, CDRH3 (antibody, listed as Homo sapiens)
heavy: [letters of about 100 residues left out]GITGTKKYQSSPDGGSGGSLRRSSCFGGRMDRIGAQSGLGCNSFRYGSYSYTYNYAEYFQHWGQGTLVTVSS[letters of human IgG1 constant region left out]
light: QSVLTQPPSVSGAPGQRVTISCTGSSSNIGAGYDVHWYQQLPGTAPKLLIYGNSNRPSGVPDRFSGSKSGTSASLAITGLQAEDEADYYCQSYDSSLSGVVFGGGTKLTVLGQPKAAPSVTLFPPSSEELQANKATLVCLISDFYPGAVTVAWKADSSPVKAGVETTTPSKQSNNKYAASSYLSLTPEQWKSHRSYSCQVTHEGSTVEKTVAPTECS
modifications: NP engrafted HC
Turning to B6, the qualit. activity result (summarized qualitative assessment of activity relative to reference TPP-5661) is recorded as “++ (relative log EC50<0.7 were assessed as very active)”.
